Results taken from PubChem BioAssay (Tox21).
Inconclusive means that the source gave no clear call. Such entries were picked first, then a sample of the others. For some assays here: A potency beside an inconclusive call is a rough fit, not a confirmed value. Calls of active or inactive are those of the source. Unless noted, calls come from the whole dose curve; as a rule, active = well fitted curve in the direction sought with a large enough effect in the repeat runs; inconclusive = weak or mixed curves; inactive = no such curve, though single readings can be large; an effect the other way counts as inactive or inconclusive.

Legend:
[1] = qHTS assay for small molecule agonists of the p53 signaling pathway (AID 651631; calls by dose curve; note: potency is the fitted concentration of half-maximal effect; nearly all actives have a fitted effect of over 15% in size); conditions: HCT-116 p53RE-bla reporter, beta-lactamase FRET ratio, 16 h; activation: at 73.3 µM (top of the series) unless noted
Procedure, shortened: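 HCT-116 p53RE-bla reporter line, 16 h compound treatment at 37 °C, then fluorescence after 2 h with B/G FRET substrate.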

[2] = qHTS assay for small molecule disruptors of the mitochondrial membrane potential (AID 720635); conditions: HepG2 mitochondrial membrane potential, Mito-MPS dye ratio; ratio activity, negative = MMP loss: at 83.2 µM (top of the series) unless noted; note: potency is the fitted concentration of half-maximal effect; for ratio activity, negative = MMP loss: % is set by controls: 0 for no effect and ±100 for the full control effect
Procedure, shortened: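 Mitochondrial membrane potential tracked with Mito-MPS dye, red aggregates (ex 540/em 590 nm) against green monomers (ex 490/em 535 nm). Compound treatment 1 hr at 37C, dye 30 min in HepG2.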

[3] = qHTS assay for identifying genotoxic compounds that show differential cytotoxicity against isogenic chicken DT40 cell lines with known DNA damage response pathways - wild type cell line (AID 743012); conditions: DT40 wild type chicken cells viability, CellTiter-Glo, 40 h; activity change, negative = cytotoxicity: at 68.4 µM (top of the series) unless noted; note: potency is the fitted concentration of half-maximal effect; nearly all actives have a fitted effect of over 60% in size
Procedure, shortened: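 Viability of DNA repair-proficient chicken DT40 cells was assessed by CellTiter-Glo luminescence following 40 h compound exposure at 37 C/5% CO2.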

[4] = qHTS assay to identify small molecule antagonists of the thyroid receptor (TR) signaling pathway (AID 743065); note: potency is the fitted concentration of half-maximal effect; nearly all actives have a fitted effect of over 55% in size
Procedure, shortened: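 Antagonism measured as loss of luciferase signal in GH3 cells stably carrying a TRE-luciferase reporter, co-treated with compound and T3 (1 nM final) for 23.5 h at 37 C. Viability was read in the same well by CellTiter-Fluor.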

[5] = target: Estrogen receptor (Homo sapiens) (UniProt P03372); assay: qHTS assay to identify small molecule agonists of the estrogen receptor alpha (ER-alpha) signaling pathway using the BG1 cell line (AID 743079); conditions: BG1Luc4E2 cells, ERE-luciferase agonist, 22 h; activation: at 70.3 µM (top of the series) unless noted; note: % is set by controls: 0 for no effect and ±100 for the full control effect; nearly all actives have a fitted effect of over 20% in size
Chain of UniProt P03372 (P03372 whole entry, looked up): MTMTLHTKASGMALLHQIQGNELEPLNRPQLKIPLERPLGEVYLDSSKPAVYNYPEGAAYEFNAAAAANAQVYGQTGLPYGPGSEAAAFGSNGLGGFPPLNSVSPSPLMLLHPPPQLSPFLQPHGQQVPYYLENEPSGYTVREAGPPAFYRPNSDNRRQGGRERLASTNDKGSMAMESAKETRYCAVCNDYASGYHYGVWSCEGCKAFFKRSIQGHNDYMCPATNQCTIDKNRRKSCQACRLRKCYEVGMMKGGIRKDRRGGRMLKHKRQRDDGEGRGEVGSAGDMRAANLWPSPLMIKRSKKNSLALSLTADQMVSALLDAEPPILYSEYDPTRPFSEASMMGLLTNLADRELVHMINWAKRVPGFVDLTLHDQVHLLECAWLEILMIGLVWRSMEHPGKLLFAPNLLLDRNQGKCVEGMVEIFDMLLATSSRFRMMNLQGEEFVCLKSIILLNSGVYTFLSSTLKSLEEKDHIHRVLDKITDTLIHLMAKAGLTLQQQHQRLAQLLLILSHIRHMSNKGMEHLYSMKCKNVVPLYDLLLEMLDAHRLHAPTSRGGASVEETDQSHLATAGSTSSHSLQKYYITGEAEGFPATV

[6] = qHTS assay to identify small molecule agonists of the estrogen related receptor (ERR) signaling pathway (AID 1224820); note: potency is the fitted concentration of half-maximal effect; for activation: % is set by controls: 0 for no effect and ±100 for the full control effect
Procedure, shortened: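 After 6 h plating (2,000 cells/well) and 18 h compound treatment at 37 C, ERR cells were lysed with One-Glo and luminescence read after 30 min at room temperature.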

[7] = system: estrogen-related receptor alpha (ERRalpha) with PGC-1alpha coactivator, human; assay: qHTS assay to identify small molecule antagonists of the estrogen related receptor signaling pathway with the pleiotropic PPARgamma coactivator (PGC) (AID 1224821; calls by dose curve; note: nearly all actives have a fitted effect of over 50% in size; note: potency is the fitted concentration of half-maximal effect;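 for activity change, negative = inhibition: % is set by controls: 0 for no effect and ±100 for the full control effect; lower luminescence signal means antagonism of PGC/ERR signalling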)
Procedure, shortened: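 Luminescence from One-Glo luciferase reagent (30 min, room temperature) measured after 18 h compound treatment at 37 °C. Cells carry the PGC/ERR reporter and were seeded 6 h prior to dosing.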

[8] = qHTS assay to identify small molecule antagonists of the estrogen related receptor signaling pathway with the pleiotropic PPARgamma coactivator (PGC) cell viability counter screen (AID 1224822;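 note: potency is the fitted concentration of half-maximal effect; viability read after 17.5 h compound exposure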)
Procedure, shortened: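 17.5 h compound treatment of PGC/ERR cells at 37 C; readout CellTiter-Fluor fluorescence; run alongside the PGC/ERR antagonist screen to flag cytotoxic compounds.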

[9] = qHTS assay to identify small molecule agonists of the estrogen related receptor signaling pathway with the pleiotropic PPARgamma coactivator (PGC) (AID 1224823); note: potency is the fitted concentration of half-maximal effect
Procedure, shortened: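 Luminescence from One-Glo reagent (30 min, room temperature) was read after 18 h compound treatment at 37 C of PGC/ERR cells plated 6 h beforehand; compounds delivered in DMSO by pin tool.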

[10] = target: Glucocorticoid receptor (Homo sapiens) (UniProt P04150); assay: qHTS assay to identify small molecule antagonists of the glucocorticoid receptor (GR) signaling pathway (AID 720692; active = well fitted inhibition curve with a large enough effect in the signal ratio in the repeat runs, not every such curve was filed as active; inconclusive = weak or mixed curves, or effect the other way; inactive = no such curve, though single readings can be large or run the other way; the % refers to the signal ratio; note: % is set by controls: 0 for no effect and ±100 for the full control effect); conditions: GR-bla HeLa, beta-lactamase FRET ratio, dexamethasone-stimulated, 18 h; activity change, negative = inhibition: at 58.5 µM (top of the series) unless noted
Chain of UniProt P04150 (P04150 whole entry, looked up): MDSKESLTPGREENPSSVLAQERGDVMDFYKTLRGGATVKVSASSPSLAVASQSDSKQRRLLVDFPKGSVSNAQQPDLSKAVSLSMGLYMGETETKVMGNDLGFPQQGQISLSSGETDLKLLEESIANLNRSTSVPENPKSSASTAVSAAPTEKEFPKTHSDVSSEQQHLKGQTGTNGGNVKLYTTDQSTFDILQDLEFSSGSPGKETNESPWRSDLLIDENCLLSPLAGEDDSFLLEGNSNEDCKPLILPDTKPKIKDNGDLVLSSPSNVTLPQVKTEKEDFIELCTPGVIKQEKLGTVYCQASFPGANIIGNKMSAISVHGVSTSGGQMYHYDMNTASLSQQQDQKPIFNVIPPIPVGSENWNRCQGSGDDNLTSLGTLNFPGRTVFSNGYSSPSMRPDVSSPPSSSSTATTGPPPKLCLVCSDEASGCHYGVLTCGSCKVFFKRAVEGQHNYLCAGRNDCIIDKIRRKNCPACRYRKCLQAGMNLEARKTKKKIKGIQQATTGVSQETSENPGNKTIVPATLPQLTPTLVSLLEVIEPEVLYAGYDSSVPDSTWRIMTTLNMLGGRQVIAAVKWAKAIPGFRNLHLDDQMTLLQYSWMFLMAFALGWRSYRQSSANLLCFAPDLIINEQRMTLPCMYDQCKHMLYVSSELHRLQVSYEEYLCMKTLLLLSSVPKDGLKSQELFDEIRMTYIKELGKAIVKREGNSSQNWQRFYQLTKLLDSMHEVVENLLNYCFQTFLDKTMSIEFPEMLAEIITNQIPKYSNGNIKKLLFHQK
Procedure, shortened: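 In a 1536-well cell format, compounds were added 4 h after seeding GR-bla HeLa cells, together with dexamethasone at 5 nM final; reporter activity was measured by FRET-substrate fluorescence following 18 h at 37 C.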

[11] = target: Androgen receptor (Homo sapiens) (UniProt P10275); assay: qHTS assay to identify small molecule antagonists of the androgen receptor (AR) signaling pathway (AID 743035; active = well fitted inhibition curve with a large enough effect in the signal ratio in the repeat runs, not every such curve was filed as active; inconclusive = weak or mixed curves, or effect the other way; inactive = no such curve, though single readings can be large or run the other way; the % refers to the signal ratio; note: potency is the fitted concentration of half-maximal effect); conditions: HEK293 AR-UAS-bla, R1881-stimulated, beta-lactamase FRET, 16 h; activity change, negative = inhibition: at 58.5 µM (top of the series) unless noted
Chain of UniProt P10275 (P10275 whole entry, looked up): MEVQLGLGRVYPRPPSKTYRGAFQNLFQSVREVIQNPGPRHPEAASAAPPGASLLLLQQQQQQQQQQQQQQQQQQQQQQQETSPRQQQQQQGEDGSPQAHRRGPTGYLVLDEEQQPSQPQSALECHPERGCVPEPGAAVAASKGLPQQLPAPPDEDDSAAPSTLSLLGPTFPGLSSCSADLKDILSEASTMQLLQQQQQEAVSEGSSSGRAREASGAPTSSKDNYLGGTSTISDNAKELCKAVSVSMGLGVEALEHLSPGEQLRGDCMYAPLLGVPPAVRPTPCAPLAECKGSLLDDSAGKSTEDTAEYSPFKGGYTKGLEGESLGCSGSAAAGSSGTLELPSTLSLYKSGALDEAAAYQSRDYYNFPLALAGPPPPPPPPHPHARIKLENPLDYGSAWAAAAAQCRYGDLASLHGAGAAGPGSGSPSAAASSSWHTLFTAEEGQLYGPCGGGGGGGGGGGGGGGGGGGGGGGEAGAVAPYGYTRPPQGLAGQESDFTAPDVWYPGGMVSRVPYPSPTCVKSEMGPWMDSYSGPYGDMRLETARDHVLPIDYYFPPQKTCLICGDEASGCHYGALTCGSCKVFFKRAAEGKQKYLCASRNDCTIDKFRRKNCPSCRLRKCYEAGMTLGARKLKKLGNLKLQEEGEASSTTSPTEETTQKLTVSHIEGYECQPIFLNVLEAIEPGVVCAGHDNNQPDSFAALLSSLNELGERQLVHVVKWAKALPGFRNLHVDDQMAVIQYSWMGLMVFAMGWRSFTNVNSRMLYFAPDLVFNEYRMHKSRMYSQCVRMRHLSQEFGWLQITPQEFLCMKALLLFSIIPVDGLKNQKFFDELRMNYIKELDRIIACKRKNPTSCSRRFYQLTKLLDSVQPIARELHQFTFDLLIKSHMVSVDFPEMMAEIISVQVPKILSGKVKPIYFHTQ
Procedure, shortened: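 Reporter HEK293 cells were exposed to compounds and R1881 overnight (16 h, 37C); beta-lactamase activity was then quantified by FRET fluorescence.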

[12] = qHTS assay to identify small molecule antagonists of the thyroid receptor (TR) signaling pathway - cell viability counter screen (AID 743064); conditions: GH3.TRE-Luc viability, CellTiter-Fluor, 24 h; activity change, negative = cytotoxic: at 70.3 µM (top of the series) unless noted; note: potency is the fitted concentration of half-maximal effect; nearly all actives have a fitted effect of over 50% in size
Procedure, shortened: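 Plate GH3.TRE-Luc cells; incubate 4 h at 37 °C; add compound, then T3 to 1 nM final; incubate 23.5 h; add CellTiter-Fluor; incubate 30 min at 37 °C, 5% CO2; read fluorescence.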

[13] = target: Estrogen receptor (Homo sapiens) (UniProt P03372); assay: qHTS assay to identify small molecule antagonists of the estrogen receptor alpha (ER-alpha) signaling pathway (AID 743069; active = well fitted curve in the direction sought with a large enough effect in the signal ratio in the repeat runs, not every such curve was filed as active; inconclusive = weak or mixed curves, or effect the other way; inactive = no such curve, though single readings can be large or run the other way; the % refers to the signal ratio; note: potency is the fitted concentration of half-maximal effect); conditions: HEK293 ER-alpha-UAS-bla, beta-lactamase ratio, antagonist mode; activity, negative = inhibition: at 69.4 µM (top of the series) unless noted
Procedure, shortened: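 Antagonist mode: compounds in DMSO were co-added with 17beta-estradiol to ER-alpha-bla HEK293 cells (2% charcoal-stripped serum) and left 18 h at 37C. Reporter inhibition was measured as FRET fluorescence after 2 h LiveBLAzer substrate at room temperature.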

[14] = qHTS assay to identify small molecule antagonists of the estrogen receptor alpha (ER-alpha) signaling pathway using the BG1 cell line (AID 743080; calls by dose curve; note: potency is the fitted concentration of half-maximal effect; nearly all actives have a fitted effect of over 25% in size); conditions: BG1Luc4E2 ERE-luciferase antagonist mode, luminescence; activity change, negative = inhibition: at 70.3 µM (top of the series) unless noted
Procedure, shortened: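 Antagonist mode: compounds in DMSO were pinned onto BG1-Luc-4E2 cells alongside 17beta-estradiol agonist, incubated 21.5 h, and ERE-driven luciferase measured with ONE-Glo. Cytotoxicity was multiplexed using CellTiter-Fluor fluorescence.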

Aromatase (Homo sapiens) = Aromatase (Homo sapiens) (UniProt P11511); assay: qHTS assay to identify aromatase inhibitors (AID 743083); note: potency is the fitted concentration of half-maximal effect; nearly all actives have a fitted effect of over 55% in size
Chain of UniProt P11511 (P11511 whole entry, looked up): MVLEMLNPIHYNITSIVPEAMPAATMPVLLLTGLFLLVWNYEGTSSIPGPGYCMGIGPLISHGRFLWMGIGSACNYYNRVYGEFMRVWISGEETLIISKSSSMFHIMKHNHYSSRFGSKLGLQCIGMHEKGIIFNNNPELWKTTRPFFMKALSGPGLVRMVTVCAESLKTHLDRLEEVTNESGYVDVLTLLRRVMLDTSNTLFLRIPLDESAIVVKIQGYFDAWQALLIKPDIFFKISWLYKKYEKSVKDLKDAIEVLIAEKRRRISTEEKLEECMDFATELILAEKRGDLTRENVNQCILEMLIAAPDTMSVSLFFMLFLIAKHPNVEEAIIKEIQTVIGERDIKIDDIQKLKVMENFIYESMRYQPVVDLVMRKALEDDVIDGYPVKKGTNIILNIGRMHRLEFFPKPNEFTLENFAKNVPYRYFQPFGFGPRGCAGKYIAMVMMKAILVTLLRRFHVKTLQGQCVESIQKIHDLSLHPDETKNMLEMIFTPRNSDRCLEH

[15] = qHTS assay to identify small molecule that activate the aryl hydrocarbon receptor (AhR) signaling pathway - cell viability counter screen (AID 743086);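 note: HepG2 liver cells carrying the AhR DRE luciferase reporter; % is set by controls: 0 for no effect and ±100 for the full control effect; nearly all actives have a fitted effect of over 45% in size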
Procedure, shortened: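 Cytotoxicity counter screen: CellTiter-Fluor signal (30 min, 37 C) in 4000 HepG2 cells/well carrying the DRE-luciferase reporter, following 24 h compound exposure at 37 C.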

[16] = target: Nuclear receptor subfamily 1 group I member 2 (Rattus norvegicus) (UniProt Q9R1A7); assay: Rat pregnane X receptor (rPXR) activation by small molecules, qHTS assay (AID 1346983); conditions: rPXR luciferase reporter cells, One-Glo luminescence, 24 h; max activation: active compounds read high; note: potency is the fitted concentration of half-maximal effect; nearly all actives have a fitted effect of over 20% in size
Chain of UniProt Q9R1A7 (Q9R1A7 whole entry, looked up): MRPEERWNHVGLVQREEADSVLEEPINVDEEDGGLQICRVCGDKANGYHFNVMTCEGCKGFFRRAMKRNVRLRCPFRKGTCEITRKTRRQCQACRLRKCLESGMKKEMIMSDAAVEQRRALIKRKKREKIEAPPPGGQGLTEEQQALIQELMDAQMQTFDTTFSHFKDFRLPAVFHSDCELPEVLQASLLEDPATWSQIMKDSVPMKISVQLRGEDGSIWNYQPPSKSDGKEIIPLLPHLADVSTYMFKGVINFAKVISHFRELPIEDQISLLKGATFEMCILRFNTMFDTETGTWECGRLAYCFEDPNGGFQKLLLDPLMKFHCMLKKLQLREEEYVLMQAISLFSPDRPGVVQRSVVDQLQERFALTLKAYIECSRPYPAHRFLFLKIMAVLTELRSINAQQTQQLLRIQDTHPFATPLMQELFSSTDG
Procedure, shortened: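 Luminescent readout (One-Glo luciferase, 30 min room temperature) followed 24 hr compound treatment at 37 C of rPXR cells plated 2,000 per well and preincubated 5hr; qHTS format with compounds delivered in DMSO.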
Tags give direction and shape of the fitted curve or compound fluorescence and quenching.

CC(C)COC(=O)OCN1C(=O)CN(CCN2CC(=O)N(COC(=O)OCC(C)C)C(=O)C2)CC1=O
Potency [1]: active: 3.76 µM
Potency [2]: inactive
Potency [3]: inconclusive: 0.473 µM [cytotoxic, full curve]
Potency [4]: inconclusive: 0.188 µM [inhibitor, partial curve, poor fit]
Potency [5]: inactive
Potency [6]: inconclusive: 21.1 µM [activator, single point]
Potency [7]: inconclusive: 2.66 µM [inhibitor, partial curve, poor fit]

N#C/C(=C\c1ccc(O)c(O)c1)C(=O)NCCCNC(=O)/C(C#N)=C/c1ccc(O)c(O)c1
Potency [8]: inconclusive: 29.8 µM [cytotoxic, partial curve, poor fit]

COc1cc(SC)ccc1C(=O)N1CCC(Cc2ccccc2)CC1
Potency [7]: inconclusive: 22.4 µM [inhibitor]

Brc1c(Br)c(Br)c2[nH]cnc2c1Br
Potency [7]: active: 6.94 µM
Potency [8]: inconclusive: 26.6 µM [cytotoxic]

O=C(Nc1ccc2[nH]ncc2c1)C1CCC1
Potency [6]: active: 12.8 µM
Potency [9]: inconclusive: 11 µM [activator]

O=C(O)c1cc2cc(F)ccc2[nH]1
Potency [6]: inconclusive: 5.96 µM [activator, partial curve, poor fit]
Potency [7]: inactive

Nc1ccc2c3c(cccc13)C(=O)NC2=O
Potency [8]: inconclusive: 11.9 µM

CN1Cc2sccc2C(c2ccc(O)c(O)c2)C1 (stereo not given)
Potency [6]: inconclusive: 21.1 µM [activator, partial curve, poor fit]

C=CC1(C)CC(=O)C2(O)C(C)(O1)C(OC(C)=O)C(O)C1C(C)(C)CCC(O)C12C (stereo not given)
Potency [8]: inconclusive: 33.5 µM [cytotoxic, partial curve, poor fit]

COc1cc(/C=C(\C#N)C(=O)Nc2nnc(C(F)(F)F)s2)ccc1OCc1ccc(C(F)(F)F)cc1C(F)(F)F
Potency [6]: inactive
Potency [7]: active: 3.48 µM
Potency [8]: inconclusive: 4.22 µM [cytotoxic, full curve, poor fit]

NC[C@@H]1O[C@H](C23CC4CC(CC(C4)C2)C3)Cc2c1ccc(O)c2O
Potency [8]: inconclusive: 23.7 µM [cytotoxic, single point]

CC[C@H](C)C(=O)O[C@H]1CCC=C2C=C[C@H](C)[C@H](CC[C@@H]3C[C@@H](O)CC(=O)O3)[C@H]21
Potency [1]: inconclusive: 10.6 µM [rising, partial curve, poor fit]
Potency [2]: inconclusive: 11.9 µM [activator, partial curve, poor fit]
activity change, negative = inhibition [10]: inconclusive: -44%
Potency [3]: active: 2.98 µM
Potency [11]: active: 15.1 µM
Potency [12]: inconclusive: 1.19 µM [rising, single point]
Potency [4]: inconclusive: 15 µM [inhibitor, partial curve]
Potency [13]: inconclusive: 12 µM [activator]
Potency [14]: inconclusive: 16.8 µM [rising, partial curve, poor fit]
Potency (Aromatase (Homo sapiens)): inconclusive: 8.41 µM [inhibitor, full curve]
Potency [15]: inactive
Potency [6]: active: 3.48 µM
Potency [16]: inconclusive: 17.8 µM [activator, partial curve, poor fit]
